# Measured values taken from the supplement of paper PMC9334596.
# “And” between values parts separate entries of the source, which are not always exact repeats. Equal values may be shown once. Whole data set: some 5,300 compounds, median “PER2::LUC luminescence relative to vehicle control” near 0.96, cut for the highest 2% near 1.3. The list shows a part of the results.
# Tested on: mPer2Luc MEF
# Assay: PER2::LUC luminescence relative to vehicle control (fold of vehicle); higher = higher PER2::LUC reporter signal
# Conditions: 10 µM
# Method in brief: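 Compounds from commercial libraries were added at 10 μM to 384-well plates seeded 48 h earlier with ~3000 mPer2Luc mouse embryonic fibroblasts per well. The cells were kept in DMEM with 10% FBS at 37 °C and 5% CO2. Luminescence was read with ONE-Glo 24 h and 30 h after treatment, then an alamarBlue viability assay was run. Values are PER2::LUC luminescence relative to vehicle control, as fold change.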
SMILES,PER2::LUC luminescence (time after treatment 24 h),PER2::LUC luminescence (time after treatment 30 h)
CO[C@H]1C[C@H](O[C@H]2[C@H](C)[C@@H](O[C@@H]3O[C@H](C)C[C@H](N(C)C)[C@H]3OC(C)=O)[C@@H](C)C[C@@]3(CO3)C(=O)[C@H](C)[C@@H](OC(C)=O)[C@@H](C)[C@@H](C)OC(=O)[C@@H]2C)O[C@@H](C)[C@@H]1OC(C)=O,1.07,1.09
COc1ccc(-c2ccc(=N)n(CCCC(=O)O)n2)cc1,1.1 and 1.01,0.985 and 0.949
O=C(O)C1CSCN1 (stereo unspecified),0.902,0.929
CC(C)(S)[C@@H](N)C(=O)O,0.875 and 0.939,1.02 and 0.943
C=CCCCCCCCCCCCC(O)CC(O)COC(C)=O (stereo unspecified),0.894,0.95
Cc1ccc(NC(=O)c2ccc(CN3CC[C@H](N(C)C)C3)c(C(F)(F)F)c2)cc1Nc1nccc(-c2cncnc2)n1,0.561,0.628
NCC1CCC(C(=O)O)CC1 (stereo unspecified),0.928,1
CC1(C)CCC(CN2CCN(c3ccc(C(=O)NS(=O)(=O)c4ccc(NCC5CCOCC5)c([N+](=O)[O-])c4)c(Oc4cnc5[nH]ccc5c4)c3)CC2)=C(c2ccc(Cl)cc2)C1,1.18,1.21
CCCCCCCCCCC[C@@H](C[C@@H]1OC(=O)[C@H]1CCCCCC)OC(=O)[C@H](CC(C)C)NC=O,0.76,0.994
CS(=O)(=O)c1cccc(CNc2nc(Nc3ccc4c(c3)CCC(=O)N4)ncc2C(F)(F)F)c1,0.647,0.495
Cn1c(=O)c2c(ncn2CC(=O)O)n(C)c1=O,0.921,0.927
O=C1O[C@H](CO)[C@@H](O)[C@H](O)[C@H]1O,0.949 and 0.615,0.958 and 0.806
O=C(CC(c1ccccc1)c1ccccc1)N1CCN(C(c2ccccc2)c2ccccc2)CC1,1.08,1.18
COc1cc(C/C=C/c2ccccc2)c(OC)cc1O,0.977,0.906
S=C(Nc1ccccc1)Nc1nccs1,1.46,1.58
COc1ccc(-c2oc3ccccc3c(=O)c2OC)cc1,0.987,1.2
N=C(N)N,0.89,0.961
O=C1CCC(N2C(=O)c3ccccc3C2=O)C(=O)N1 (racemic),0.853,1.03
C[C@]12CC[C@H]3C(=CCc4cc(O)ccc43)[C@@H]1CCC2=O,1.12,1.27
C[C@]12C=CC(=O)C=C1CC[C@@H]1[C@@H]2[C@@H](O)C[C@@]2(C)[C@H]1CC[C@]2(O)C(=O)COP(=O)(O)O,0.565,0.913
O=C(c1ccc2nccnc2c1)N1CCCCC1,1.12,1.12
CNC(=O)[C@H]1O[C@@H](n2cnc3c(NCc4cccc(I)c4)ncnc32)[C@H](O)[C@@H]1O,1.08,0.882
C=C[C@H]1CN2CC[C@H]1C[C@@H]2[C@@H](O)c1ccnc2ccc(OC)cc12,0.899 and 0.774 and 0.856,0.88 and 0.973 and 0.871
